Reference: PubChem BioAssay AID743279 (National Center for Advancing Translational Sciences (NCATS), 2014)
In all, about 360,000 compounds went through this assay and about 17,000 (4.7%) were called active. The shares of active, inactive and inconclusive entries below differ from those in the screen. No stated cut-off is given here; in the data, active means activity change below about -50%; inconclusive means mostly about -30% to -49%; inactive means weaker than that.

Test: qHTS for Inhibitors of Inflammasome Signaling: IL-1-beta AlphaLISA Primary Screen
Settings: THP-1 LPS/ATP IL-1B secretion, 16 h; at 57.5 µM, hits give low values
Method in brief: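 THP-1 cells pretreated 1 hr with compounds (up to 57.5 uM final), then stimulated with LPS (250 ng/mL final) plus ATP (1.25 mM final); secreted IL-1B measured by AlphaLISA after 16 hr, decreased signal indicating inhibition.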
On the % scale 0 is the no-effect control and ±100 the full control effect.

Structure (SMILES) | activity change
COc1ccc(O)c(C(c2c(C)[nH][nH]c2=O)c2c(C)[nH][nH]c2=O)c1 | inconclusive: -34.6%
Cc1ccccc1Cn1c(=N)n(CC(O)c2ccco2)c2ccccc21 (stereo unspecified) | active: -77.1%
N#CC1(Nc2ccc(-c3ccc(Cl)cc3)cc2)CCCC1 | inconclusive: -41.9%
Cc1cccc(NC(=O)c2cc(=O)c3ccccc3o2)c1 | inactive: 5.98%
CN(C)N1C(N)=C(C#N)C(c2ccccc2)C2=C1CCCC2=O (stereo unspecified) | inconclusive: -44.2%
Cc1ccc(NC(=O)CCN2CC(C)OC(C)C2)cc1C (stereo unspecified) | inactive: 16.1%
CCCCN(C(C)=O)c1c(CC)nc2ccc(C(=O)NCc3cccs3)cn12 | inactive: -4.62%
N#Cc1ccc(OCC(=O)n2cc(C(=O)c3cc(Cl)cc(Cl)c3O)cn2)cc1 | inactive: 27.5%
O=C(Nc1cc(C(F)(F)F)ccc1N1CCOCC1)c1ccccc1F | inconclusive: -44.7%
Cc1ccc(C2(C)NC(=O)N(CC(=O)Nc3ccc4c(c3)OCO4)C2=O)cc1 (stereo unspecified) | inconclusive: -30.1%
CCOCC(=O)Nc1ccc(Br)c(C)c1 | inconclusive: -39.8%
CN(Cc1ccc(F)cc1)C(=O)C(c1ccccc1)c1ccccc1 | inconclusive: -35.3%
Cn1cc(CNCc2cnc3ccccn23)c(-c2ccc(Oc3ccccc3)cc2)n1 | inconclusive: -43.2%
CCNc1ccc(P(=O)(c2ccccc2)c2ccccc2)cc1 | inactive: -6.2%
O=S(=O)(Nc1nc(SCc2ccc(Cl)cc2)n[nH]1)c1ccc(F)cc1 | active: -59.2%
Cc1cc(C)cc(NC(=O)Nc2cccnc2)c1 | inactive: -20.2%
Cc1cc(C(=O)N2CCCC(N3CCN(c4cccc(C(F)(F)F)c4)CC3)C2)c(C)o1 (stereo unspecified) | inconclusive: -36.6%
COc1cc(/C=N/Nc2nc(Nc3ccccc3)nc(-n3nc(C)cc3C)n2)cc(OC)c1OC | active: -64.2%
Cn1c(=O)n(C)c2cc(C(=O)Nc3ccc4c(c3)OCO4)ccc21 | inconclusive: -42.7%
COc1ccc(CCN(C)C(=O)c2ccc(COc3ccccc3)o2)cc1OC | inconclusive: -37.3%
CCOc1cc(N2CCOCC2)c(OCC)cc1NC(=O)COc1cccc(CC)c1 | inactive: 15.3%
COc1ccc(/C=N/NC(=O)c2ccc(Cn3cc([N+](=O)[O-])cn3)o2)cc1O | inactive: 2.79%

Structure (SMILES) | activity change
O=[N+]([O-])c1cccc(-c2csc(N/N=C/c3cccc(O)c3)n2)c1 | active: -168%
CCOc1ccc(NC(=O)Nc2cccn(Cc3ccccc3)c2=O)cc1 | active: -74.2%
CC1=C(C(=O)Nc2cc(C(=O)NCCCOC(C)C)ccc2C)SCCO1 | inactive: 29%
CCOC(=O)c1c(C)[nH]c(C)c1C(=O)COC(=O)c1cccs1 | inactive: -4.97%
O=C(c1cc2ccccc2cc1OCC(O)CN1CCCCC1)N1CCCCC1 (stereo unspecified) | inconclusive: -30.1%
COc1ccccc1N(Cc1ccccc1)S(=O)(=O)c1cccc(C(=O)NC2CC(C)(C)NC(C)(C)C2)c1 | inconclusive: -49.8%
O=C(N/N=C/c1ccc([N+](=O)[O-])cc1)c1cccs1 | inconclusive: -45.2%
COc1ccccc1C(CNC(=O)c1cccc(S(=O)(=O)NCc2ccccc2)c1)N(C)C (stereo unspecified) | inactive: -0.361%
CCCCn1nnnc1SCC(=O)Nc1sc2c(c1C#N)CCCC2 | inactive: -22.8%
O=C(NC1CCC(=O)N(CCOc2ccccc2)CC1)OCc1ccccc1 (stereo unspecified) | inactive: 0.161%
COC(=O)[C@]12CCCCC=C1N(Cc1ccco1)C(=O)[C@H](CC(=O)N1CCC(c3ccccc3)CC1)C2 | inactive: -29.8%
O=C(Nc1ccccc1)c1ccccc1C(=O)N1CCCCC1 | inconclusive: -33.2%
CC(=O)c1ccc2noc(-c3ccc(F)cc3)c2c1 | inconclusive: -35.5%
O=C(NC(Cc1c[nH]c2ccccc12)C(=O)Nc1ccc(F)cc1)c1cccs1 (stereo unspecified) | inconclusive: -38.8%
Cc1[nH]ncc1-c1ccccc1Cl | inactive: 11.8%
O=C(Nc1cc(C(F)(F)F)ccc1-n1cncn1)c1ccc(Br)cc1 | inconclusive: -32.8%
CCn1c(=N)n(CC(O)c2ccccc2)c2ccccc21 (stereo unspecified) | inactive: -5.35%
C[C@]12c3[nH]c4ccc(Cl)cc4c3CCN1C(=O)[C@@H](CC(=O)NCC13CC4CC(CC(C4)C1)C3)C[C@@H]2C(=O)N1CCOCC1 | inconclusive: -38%
CN(CC1CCN(CCc2cccc(C(F)(F)F)c2)CC1)C(=O)c1ccc(F)cc1 | inconclusive: -45.8%
Cc1ccc(NC(=O)C2CC(=O)N(C(C)C)C2)cc1C (stereo unspecified) | active: -64.6%
COc1ccc(CN2CCC(Cc3ccccc3)CC2)cc1OC | inconclusive: -35.9%
COc1ccc(/C=N/NC(=O)c2ccc(NC(C)=O)cc2)cc1COc1ccc(F)cc1F | inactive: 0%

Structure (SMILES) | activity change
O=C(N/N=C/c1ccncc1)c1cc2ccccc2cc1O | inconclusive: -31.1%
CCc1cc(C(c2cccc(OC)c2)N2CCOCC2)c(NC(=O)c2ccccc2)s1 (stereo unspecified) | inconclusive: -37.5%
Cc1ccc(C(CC(=O)c2ccco2)SCCO)cc1 (stereo unspecified) | inconclusive: -36.7%
CCOc1cc(/C=C/C(=O)c2ccc(OC)c(CN3CCOCC3)c2)cc(Br)c1O | active: -96.1%
O=C(NCc1ccncc1)c1ccc(Cl)c(S(=O)(=O)N2CCOCC2)c1 | inactive: 19.9%
O=C(CSc1nc2c(sc3ccccc32)c(=O)n1Cc1ccco1)NCC1CCCO1 (stereo unspecified) | inactive: 39.1%
CN(C)CCCNC(=S)N1CCN(c2nc(-c3ccccc3)cs2)CC1 | inconclusive: -45.9%
COc1ccccc1C=C1CCc2ccccc2C1=O | inactive: -7.22%
CCn1cc(CNCc2cn[nH]c2-c2cc3ccccc3o2)cn1 | inactive: 7.84%
COc1cccc(-c2oc3c(c2C(=O)OCCN2CCCCC2)C(O)CCC3)c1 (stereo unspecified) | inactive: 8.75%
CCCCCOC(=O)c1[nH]c2c(c1C)C(=O)C(C(=O)OC)C(C)C2 (stereo unspecified) | inconclusive: -34.1%
COc1ccc(-c2cn[nH]c2-c2ccc(OCc3ccccc3)cc2O)cc1OC | active: -101%
COc1ccc(C(=O)c2oc3nc(C)cc(C)c3c2N)cc1 | inconclusive: -30.6%
COC(=O)C(Cc1c[nH]c2ccccc12)NC(=O)c1cccc(S(=O)(=O)N2CCCCC2)c1 (stereo unspecified) | inconclusive: -35.8%
CC(=O)Nc1ccc(SC[C@H](C)CN2CC[C@H](C(C)(C)C)CCC2=O)cc1 | inconclusive: -39.8%
CC1CC(C)C[N+](=C2C=C(N3CCCC3)CC(C)(C)C2)C1 (stereo unspecified) | inconclusive: -44.9%
COc1ccc2c(c1)CCc1c(C(=O)N3CCOCC3)noc1-2 | inactive: -18.3%
O=C(C1CCCN(S(=O)(=O)c2ccc(F)cc2)C1)N(Cc1cccs1)C1CC1 (stereo unspecified) | inactive: -14.4%
Cc1cccc(NC(=O)c2ccc(COc3ccc(Cl)cc3Cl)o2)n1 | inconclusive: -40.6%
COc1ccc(C2CC(c3ccc(Cl)cc3Cl)n3nc(N)nc3N2)cc1 (stereo unspecified) | inconclusive: -32.2%
CC(=O)/C(=C/Nc1ccc(Oc2ccccc2)cc1)c1ccccc1 | inconclusive: -32.6%
Cc1ccc(CNC(=O)CCn2cc(-c3ccc(C)cc3)nc2CCN)cc1 | inconclusive: -37.6%

Structure (SMILES) | activity change
COc1ccc(-c2oc3c(c2C(=O)OCCCO)C(OCCCCCO)CCC3)cc1 (stereo unspecified) | inactive: 4.7%
CC(C)C[C@H]1CN(CCCC[C@H]2CNC(=O)C(=O)N2CCC2CCCCC2)C(=O)C(=O)N1CCc1ccccc1 | inconclusive: -40.8%
Cc1[nH]nc2c1C(c1ccoc1)C(C#N)=C(N)O2 (stereo unspecified) | inconclusive: -32.6%
COc1ccc(NC(=O)C2CC2(Cl)Cl)cc1S(=O)(=O)N1CCCCC1 (stereo unspecified) | inactive: 40.5%
CC(C)=NNc1nc2c(c(=O)n(C)c(=O)n2C)n1CCc1ccccc1 | inactive: -2.79%
O=C1C=CC(=O)c2c(O)c(N3CCN(CCOCCO)CC3)c(Br)c(O)c21 | active: -117%
CNC(=O)c1ccc(NC(=O)c2ccccc2OCc2c(C)noc2C)cc1 | inconclusive: -34.9%
Cc1cc(C)c(NC(=O)COC(=O)c2cccc3c2C(=O)c2ccccc2C3=O)c(C)c1 | inconclusive: -33.9%
Cc1cc(C(=O)CSc2nnc(N)s2)c(C)n1Cc1cccs1 | inconclusive: -35.7%
O=C(CSc1nnc(CNc2ccc(F)cc2)o1)N1c2ccccc2Sc2ccccc21 | inconclusive: -39.4%
CC(C)(C)Cc1c(C2CCCCC2)nc2ccc(Cl)cn12 | inactive: 60.5%
CCCCCCN1C[C@H](O)[C@@H](n2cc(COC(=O)c3ccccc3)nn2)C[C@@H]1c1ccc(C)cc1 | inactive: -4.27%
COc1ccc(OC)c(CNC(=O)C2CCN(S(=O)(=O)N3CCC(C)CC3)CC2)c1 | inconclusive: -31.5%
O=C(NCc1nc2ccccc2[nH]1)C1=C[C@H](c2ccccc2)C[C@H](OCc2ccc(CO)cc2)O1 | inconclusive: -32.8%
S=c1[nH]nc(-c2cccnc2)n1/N=C/C(Cl)=C\c1ccccc1 | inconclusive: -40.3%
COc1cccc(NC(=O)Cn2nc(Cc3cccnc3)c3ccccc3c2=O)c1 | inconclusive: -40.7%
O=C(Nc1ccc(Cl)c(Cl)c1)C1CC(=O)N(c2ccc(Br)cc2)C1 (stereo unspecified) | active: -59.7%
COc1cc(/C=N/NC(=O)c2ccccc2NS(=O)(=O)c2cccs2)ccc1O | inactive: 27.6%
CCOC(=O)c1c(-c2cccc([N+](=O)[O-])c2)csc1NC(=O)C1CC1 | inconclusive: -36.4%
CC(=O)N/C(=C\c1ccccc1)C(=O)OCC(=O)NC(C)C12CC3CC(CC(C3)C1)C2 (stereo unspecified) | inconclusive: -48.9%
